# Assay results published in a collection of fitness landscapes (doi:10.1126/science.1257360).
# Some of the results follow.
# B1: PhoQ; a variant is named by its letters at X, in order, P23837 (parent)
# chain: MKKLLRLFFPLSLRVRFLLATAAVVLVLSLAYGMVALIGYSVSFDKTTFRLLRGESNLFYTLAKWENNKLHVELPENIDKQSPTMTLIYDENGQLLWAQRDVPWLMKMIQPDWLKSNGFHEIEADVNDTSLLLSGDHSIQQQLQEVREDDDDAEMTHSVAVNVYPATSRMPKLTIVVVDTIPVELKSSYMVWSWFIYVLSANLLLVIPLLWVAAWWSLRPIEALAKEVRELEEHNRELLNPATTRELTSLVRNLNRLLKSERERYDKYRTTLTDLTHSLKTPLXXLQXXLRSLRSEKMSVSDAEPVMLEQISRISQQIGYYLHRASMRGGTLLSRELHPVAPLLDNLTSALNKVYQRKGVNISLDISPEISFVGEQNDFVEVMGNVLDNACKYCLEFVEISARQTDEHLYIVVEDDGPGIPLSKREVIFDRGQRVDTLRPGQGVGLAVAREITEQYEGKIVAGESMLGGARMEVIFGRQHSAPKDE
# Variants of: B1
# Assay: enrichment ratio after two sorts for PhoP signalling (ratio (wild type AVST 3.29)); higher = more functional
# Conditions: with PhoP (E. coli)
row,Variant,enrichment ratio
1,RRRE,≤ 0.25
2,LWKP,≤ 0.25
3,EEKP,≤ 0.25
4,VYCC,≤ 0.25
5,NGTA,≤ 0.25
6,VYEG,≤ 0.25
7,PMYM,≤ 0.25
8,TDLG,5.5
9,QRQM,≤ 0.25
10,EEVF,≤ 0.25
11,ICQG,≤ 0.25
12,VQEN,≤ 0.25
13,SGVF,8.16
14,LMMH,≤ 0.25
15,QDKS,≤ 0.25
16,PASV,≤ 0.25
17,LKED,≤ 0.25
18,SVYI,≤ 0.25
19,KENS,≤ 0.25
20,GEFV,≤ 0.25
21,STMG,9.85
22,SFKR,0.513
23,NPYN,≤ 0.25
24,GFSY,≤ 0.25

row,Variant,enrichment ratio
1,NKYP,≤ 0.25
2,FAEL,≤ 0.25
3,VMSP,≤ 0.25
4,TRNT,≤ 0.25
5,IEQA,≤ 0.25
6,PDWW,≤ 0.25
7,CMLS,≤ 0.25
8,LKFN,≤ 0.25
9,SQGN,0.358
10,TYVL,≤ 0.25
11,TMYP,≤ 0.25
12,FVLL,4.64
13,QIRS,≤ 0.25
14,TAYS,6.09
15,SFDF,≤ 0.25
16,GFIQ,≤ 0.25
17,YMKY,≤ 0.25
18,MAKW,≤ 0.25
19,TLQW,5.79
20,TNHD,≤ 0.25
21,IGGD,≤ 0.25
22,PCSD,0.281
23,DRKD,≤ 0.25
24,PAHD,≤ 0.25

row,Variant,enrichment ratio
1,GLRN,≤ 0.25
2,SGCQ,6.02
3,GAPW,≤ 0.25
4,GLES,≤ 0.25
5,LVWN,≤ 0.25
6,RETG,≤ 0.25
7,GDPV,≤ 0.25
8,NPAT,≤ 0.25
9,SAIT,≤ 0.25
10,FFCW,≤ 0.25
11,VAHQ,≤ 0.25
12,MPHP,≤ 0.25
13,FLIT,≤ 0.25
14,WPQA,≤ 0.25
15,ITYL,≤ 0.25
16,QWCP,≤ 0.25
17,YGGW,≤ 0.25
18,KPFR,0.301
19,LLAH,≤ 0.25
20,AWQV,≤ 0.25
21,IEHP,≤ 0.25
22,TDGP,≤ 0.25
23,TEKF,≤ 0.25
24,MKPE,≤ 0.25

row,Variant,enrichment ratio
1,EMSA,≤ 0.25
2,EKAM,≤ 0.25
3,ISRW,≤ 0.25
4,HKIL,≤ 0.25
5,TPRL,≤ 0.25
6,VALL,10.5
7,VVEL,≤ 0.25
8,FYCV,0.298
9,FIQF,≤ 0.25
10,LRND,≤ 0.25
11,QGQK,≤ 0.25
12,CQVF,≤ 0.25
13,RIVL,≤ 0.25
14,FQID,≤ 0.25
15,KVWF,≤ 0.25
16,PPMH,≤ 0.25
17,LQDY,≤ 0.25
18,NLYA,≤ 0.25
19,QHKC,≤ 0.25
20,KTQF,≤ 0.25
21,WSWS,≤ 0.25
22,IWFG,≤ 0.25
23,EEMA,≤ 0.25
24,IKNH,≤ 0.25

row,Variant,enrichment ratio
1,YEVE,≤ 0.25
2,PMMF,≤ 0.25
3,QQVM,≤ 0.25
4,SIAF,15.1
5,ANQF,1.01
6,ANLF,10.7
7,NNCI,≤ 0.25
8,HRLF,≤ 0.25
9,QYSL,≤ 0.25
10,RNAH,≤ 0.25
11,AGQI,≤ 0.25
12,FVCW,≤ 0.25
13,GSLR,≤ 0.25
14,CSIF,≤ 0.25
15,VHCY,≤ 0.25
16,WEAM,≤ 0.25
17,RYYG,≤ 0.25
18,TKRA,≤ 0.25
19,PAIN,≤ 0.25
20,NQLH,≤ 0.25
21,KWPC,≤ 0.25
22,RKCP,≤ 0.25
23,FREL,≤ 0.25
24,LYPQ,≤ 0.25

row,Variant,enrichment ratio
1,EVKA,≤ 0.25
2,AAIV,8.6
3,SHGG,≤ 0.25
4,ELHH,≤ 0.25
5,FTWA,≤ 0.25
6,QPFH,≤ 0.25
7,NKAW,≤ 0.25
8,LVCG,≤ 0.25
9,YMND,≤ 0.25
10,IDSD,≤ 0.25
11,YEAC,≤ 0.25
12,IRIR,≤ 0.25
13,AFKA,≤ 0.25
14,VPSG,≤ 0.25
15,MQGN,7.37
16,YVEA,≤ 0.25
17,VQAI,≤ 0.25
18,ERLN,≤ 0.25
19,GPFH,≤ 0.25
20,NDFT,≤ 0.25
21,EERV,≤ 0.25
22,NMNM,≤ 0.25
23,SVYM,0.325
24,YLII,≤ 0.25

row,Variant,enrichment ratio
1,IEQL,≤ 0.25
2,WGCE,≤ 0.25
3,KRAY,≤ 0.25
4,HLMR,≤ 0.25
5,DLTM,≤ 0.25
6,GYPC,≤ 0.25
7,EAAS,≤ 0.25
8,GFLI,≤ 0.25
9,RKWS,≤ 0.25
10,HRIK,≤ 0.25
11,ALRT,≤ 0.25
12,AQFK,≤ 0.25
13,KYGQ,≤ 0.25
14,QHSN,≤ 0.25
15,TYAF,≤ 0.25
16,MHNF,≤ 0.25
17,DICE,≤ 0.25
18,KQFL,≤ 0.25
19,KKAA,≤ 0.25
20,EAIM,≤ 0.25
21,DDFN,≤ 0.25
22,KRMN,≤ 0.25
23,ECSL,0.598
24,QFAK,≤ 0.25

row,Variant,enrichment ratio
1,NNLH,≤ 0.25
2,LYAE,≤ 0.25
3,PCSQ,≤ 0.25
4,EAYF,≤ 0.25
5,YRPF,≤ 0.25
6,KMTY,≤ 0.25
7,KYKG,≤ 0.25
8,WLPY,≤ 0.25
9,LWSY,≤ 0.25
10,LMKT,≤ 0.25
11,MTKM,≤ 0.25
12,RIKQ,≤ 0.25
13,PGKH,≤ 0.25
14,DHMK,≤ 0.25
15,GYRP,≤ 0.25
16,SYKC,≤ 0.25
17,WQCN,≤ 0.25
18,RGIQ,≤ 0.25
19,AWWG,≤ 0.25
20,HKYL,≤ 0.25
21,MCTC,≤ 0.25
22,QDIR,≤ 0.25
23,TRYH,≤ 0.25
24,MVLR,≤ 0.25

row,Variant,enrichment ratio
1,AGDD,≤ 0.25
2,SYTH,≤ 0.25
3,TILI,≤ 0.25
4,ESCS,≤ 0.25
5,GLSV,3.04
6,VSLH,0.279
7,MDMY,≤ 0.25
8,YIYG,≤ 0.25
9,IPDR,≤ 0.25
10,WHAD,≤ 0.25
11,IFRT,≤ 0.25
12,MRRE,≤ 0.25
13,NHRI,≤ 0.25
14,WLTP,≤ 0.25
15,QLNM,≤ 0.25
16,PFCH,≤ 0.25
17,FWPW,≤ 0.25
18,WALL,8.8
19,SFNK,≤ 0.25
20,GGWL,≤ 0.25
21,PFNG,≤ 0.25
22,LTHL,3.35
23,NKLR,≤ 0.25
24,PDTA,≤ 0.25

row,Variant,enrichment ratio
1,RWLM,≤ 0.25
2,IAHT,≤ 0.25
3,GCLQ,3.84
4,EGGD,≤ 0.25
5,ADVC,5.18
6,VWRR,≤ 0.25
7,RYTC,≤ 0.25
8,LNEY,1.11
9,YEGY,≤ 0.25
10,WIAI,≤ 0.25
11,WFNV,≤ 0.25
12,QAHL,16.7
13,FLLV,0.38
14,NPGS,≤ 0.25
15,EFIS,≤ 0.25
16,TPHK,≤ 0.25
17,GTYP,≤ 0.25
18,DNLC,≤ 0.25
19,KRDW,≤ 0.25
20,PWFE,≤ 0.25
21,YIFY,≤ 0.25
22,DQSP,≤ 0.25
23,QLCN,≤ 0.25
24,YEII,≤ 0.25

row,Variant,enrichment ratio
1,MRVF,≤ 0.25
2,DVYF,≤ 0.25
3,WQEK,≤ 0.25
4,TVQI,11
5,GDKT,≤ 0.25
6,SLLD,0.296
7,KGPI,≤ 0.25
8,QHCV,≤ 0.25
9,NVPE,≤ 0.25
10,PLRV,≤ 0.25
11,NWYY,≤ 0.25
12,ASRS,≤ 0.25
13,PCSC,≤ 0.25
14,VAPV,≤ 0.25
15,VLCK,≤ 0.25
16,WTKK,≤ 0.25
17,TAKI,≤ 0.25
18,TFMV,1.01
19,FPVF,≤ 0.25
20,YSNN,0.417
21,ACPQ,≤ 0.25
22,DRFH,≤ 0.25
23,GMRH,≤ 0.25
24,QKTE,≤ 0.25

row,Variant,enrichment ratio
1,SMCQ,7.8
2,KGPH,≤ 0.25
3,MGGS,17.9
4,IFLY,≤ 0.25
5,TEIK,≤ 0.25
6,HHMI,≤ 0.25
7,FKKG,≤ 0.25
8,SKVN,1.04
9,TDDP,≤ 0.25
10,PFRW,≤ 0.25
11,TPSV,≤ 0.25
12,NFEY,≤ 0.25
13,ENMF,≤ 0.25
14,QRHE,≤ 0.25
15,AQGI,1.32
16,AELW,11.4
17,SNTG,9.7
18,TTEF,3.01
19,STLE,5.39
20,HFCV,≤ 0.25
21,SARC,≤ 0.25
22,INDY,≤ 0.25
23,DCFG,≤ 0.25
24,PPWV,≤ 0.25

row,Variant,enrichment ratio
1,MNIS,≤ 0.25
2,SHHR,≤ 0.25
3,FTCC,≤ 0.25
4,MGVY,1.34
5,ECDF,≤ 0.25
6,DCEY,≤ 0.25
7,FYAF,≤ 0.25
8,AKPF,≤ 0.25
9,KMPG,≤ 0.25
10,SDSL,0.277
11,ITGT,≤ 0.25
12,QRVN,≤ 0.25
13,YFQF,≤ 0.25
14,IGGF,≤ 0.25
15,YYRD,≤ 0.25
16,YTHK,2.21
17,EQIN,≤ 0.25
18,RWYN,≤ 0.25
